Data: the supplement of paper PMC10126150
Values marked as one replicate rest on one cluster of the flow cell; about a third of the high ones do not repeat.

Test system: ATP
Assay: switch fluorescence ratio, 500 uM ATP over buffer (Cy3 cluster intensity, sum of 5 cycles each) (fold (ratio)); higher = stronger signal-on switching upon ATP binding; sequences stand for … in TCGTCGGCAGCGTCAGATGTGTATAAGAGACAGTTTTTTTTTTTTTTTTTTTTTTTTT…TC
Conditions: aptamer strand: ATP DNA aptamer (quencher-CACCTGGGGGAGTATTGCGGAGGAAGG + anchor), 100 nM annealed; ATP concentration: 500 uM; one replicate
How it was run: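 The quencher-labelled ATP aptamer, at 100 nM, was annealed to Cy3-labelled switching-strand clusters on a modified Illumina MiSeq flow-cell. The clusters were imaged in selection buffer, then after 15 min with 500 uM ATP at 22 °C, and this buffer/ATP cycle ran five times with NaOH stripping and re-annealing between runs. Per-cluster fluorescence ratios, summed target-cycle over summed buffer-cycle Cy3 intensity, were averaged per switch-domain sequence. Clusters outside 100-1000 RFU were excluded.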
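Also: ATP exposure 15 min at 22 °C before imaging.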

| Sequence | switch fluorescence ratio |
| --- | --- |
| TGAACCTGTG | 0.984 |
| CTGCTTAGGT | 1.01 |
| AGTTCTGAGT | 1 |
| TAGGAGTACG | 1.01 |
| GTTCGGGGGA | 1.05 |
| GTTCGGTATA | 0.977 |
| CGCTGAGTTC | 1.06 |
| CGGCTTTATC | 1.05 |
| TACATTATGA | 1.04 |
| ACTAGGATGT | 0.989 |
| ACGGAAGCCA | 1.07 |
| TATTGGTGC | 1.06 |
| GTCGTAACGG | 1.05 |
| GGGCAGGT | 1.03 |
| AAATATTCAC | 1.02 |
| CTAGGGTGCG | 0.968 |
| AGAGGGAACG | 1.03 |
| TTCAGCAGGA | 0.984 |
| TTGTTGCGGT | 0.983 |
| ATCAGCGTCC | 1.03 |
| CAGTAGGTAC | 1.17 |
| TCGGCAGCGC | 0.971 |
| GTGATGTGAG | 1 |

| Sequence | switch fluorescence ratio |
| --- | --- |
| CCGAAGGAAT | 1.18 |
| AACGGAAACT | 1.05 |
| TGAGTGAATA | 1 |
| ATATAGGGTA | 1 |
| AGGCAAGTTA | 1.01 |
| CGCCTAAACA | 1.03 |
| ATTGATCGG | 0.987 |
| TACATGCTT | 1.07 |
| GAAACGTCCG | 1.02 |
| GCGGTTTGTG | 0.96 |
| CAGTGGGTAG | 1.01 |
| CTGTTTCTCC | 1.05 |
| AAAATATCTG | 1.02 |
| TGGTGGCCGA | 1.02 |
| ACCTGATATC | 1.03 |
| TAAGTTCTAG | 0.946 |
| TTTTTCCTGG | 0.967 |
| TACAAAACTC | 1.05 |
| AAGGACTACT | 1.02 |
| AGCGATGGGC | 1.05 |
| AGTCGCGACG | 0.928 |
| ATGGGAATTG | 0.947 |
| CTCCATGGAG | 0.966 |

| Sequence | switch fluorescence ratio |
| --- | --- |
| TGTGTTCGAC | 0.991 |
| CTCTAATTCT | 0.986 |
| GGCTCAT | 1.02 |
| CAATGTGTGG | 1.01 |
| GCCTCGGTAA | 1.46 |
| CAGACACATA | 1.14 |
| GGTTGGTTCA | 1.04 |
| TTCTGAATTA | 0.976 |
| TGTCATTTGA | 0.983 |
| AAAAATCTCC | 1.06 |
| GGTCGGTCGG | 1.04 |
| GAGAAGCTTA | 0.997 |
| CTTCAATGAT | 1.01 |
| CATTGAGGAA | 1 |
| ATAAGCGCGA | 0.991 |
| CCTACTCTGG | 1.03 |
| CTCTATCCCG | 0.996 |
| GTGATTACGG | 1.02 |
| TGCCGGTGTG | 0.981 |
| AAAACCTAAA | 0.993 |
| GAAATGAACT | 1 |
| GAGCCGAGTT | 0.996 |
| TTATCGTAAT | 0.988 |

| Sequence | switch fluorescence ratio |
| --- | --- |
| CTTAGTCTTA | 0.983 |
| GGGGTCAAGT | 0.989 |
| TAGCGAATT | 0.949 |
| AAGCTTCTGC | 1.02 |
| CATCATTTAC | 1.17 |
| TATTAGTAAA | 1.02 |
| ATTCTCGAGA | 1.02 |
| CACACGTGTC | 0.986 |
| GAGCTTCATA | 0.976 |
| GGTTGGTAGC | 1.04 |
| AAATTTCCGG | 1.45 |
| TGTTTAGGA | 1.04 |
| AAGGCCAAT | 0.996 |
| ATATTGCGGA | 0.99 |
| AGCTTGTGAT | 0.99 |
| TCAGCCCCGA | 0.987 |
| TGTAATGCTT | 1.01 |
| ATCGCTCTCC | 1.4 |
| ACAAGTGTCG | 1.13 |
| CGGCCCGTTT | 0.989 |
| TTTGCCTGCA | 1.07 |
| GCCGAAGTCT | 1.01 |
| ATGAGGGTTA | 1 |

| Sequence | switch fluorescence ratio |
| --- | --- |
| GTATGACAAG | 1 |
| GCCTTGGCAT | 1.01 |
| GGAGCTGGCT | 1.02 |
| TGAGTGCCAT | 0.981 |
| TCCTTTTGAG | 1.02 |
| GACGTAATG | 1.02 |
| TCTGAGGTGT | 1.07 |
| AGGCCCATAA | 0.998 |
| TGTACAAGGA | 0.993 |
| GCCTGGGAGG | 0.998 |
| TGAGTGATTA | 1.01 |
| CACGGTGTTT | 1.04 |
| CAGCCCGTAG | 2.3 |
| AAATTTCTCA | 1.04 |
| AGTTAATGT | 0.983 |
| TTGGTAGGCT | 0.988 |
| GCTCCCTGAA | 1.2 |
| AGAGCGTCCG | 1.01 |
| TGTCCAAGGG | 1 |
| CCTGCGACGC | 2.05 |
| ACACGGTTCG | 0.984 |
| TGATATTCGT | 1.02 |
| GTTTTCGGG | 0.997 |

| Sequence | switch fluorescence ratio |
| --- | --- |
| GCTCCTCAA | 3.85 |
| CATAAGTACG | 1.3 |
| ACATGCGAAT | 1.03 |
| AGTTGTTTAT | 1 |
| AACAGGGCGC | 1.04 |
| GTTGAATATA | 1.03 |
| TTTGGAGCGG | 0.988 |
| GCGAGGTGAG | 0.992 |
| GCGGTTTATC | 1 |
| CATGTAAAAG | 0.997 |
| TAATTGAAAC | 1.03 |
| ACACGTCAAT | 1.42 |
| GTTGATATTA | 1.04 |
| CAGCTGGCAA | 2.15 |
| AACTAGCCCA | 0.994 |
| CGGCATATGG | 1.06 |
| TATAGACGTT | 0.957 |
| CAGCATTGC | 1.49 |
| GGCTACGTTA | 1.17 |
| ACCTGGCGAT | 1.1 |
| AGAGCTTTAA | 1.01 |
| CGTCCAGCGG | 1.1 |
| AATCAGATAC | 1.24 |

| Sequence | switch fluorescence ratio |
| --- | --- |
| CGATGATGTA | 0.979 |
| AGCTTTAGAT | 0.987 |
| CATAGACCTG | 1 |
| ATGTGCGGAG | 1 |
| CTAGTGTGCT | 1.03 |
| CTGGCGCTGA | 1.05 |
| TGCAGAATTT | 0.923 |
| ACTCACTAAT | 1.2 |
| GGTTTGCGAG | 0.972 |
| ATGGTAGACC | 1.02 |
| TAGAGCCTTG | 0.968 |
| TCCTTAGTGG | 1.03 |
| AGACGGCTCG | 0.964 |
| GGCCTAGCTA | 1.01 |
| ACTTCAAGCT | 1.08 |
| GGAGTTTCCC | 0.969 |
| GTTTAAGATC | 0.993 |
| GCTCGTAATG | 1.08 |
| AGCAGTCCCG | 1.04 |
